Results taken from PubChem BioAssay AID488969 (Vanderbilt High Throughput Screening Facility, 2010).
Over roughly 110,000 compounds, “z-score” has its median near -0.1; the highest 2% begin near 2. This is one part of the list. Calls of active or inactive are those of the source.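 The calls were made as follows: active = z-score in the third read window above 3 or below -3; inactive = the rest.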

The compounds below were run against Metabotropic glutamate receptor 8 (Rattus norvegicus) (UniProt P70579) (assay: rat mGluR8 modulators via GIRK flux, primary screen, cell-based, thallium flux, HTS (AID 488969)). Conditions: HEK293 rat mGluR8, GIRK (G protein-gated inwardly rectifying potassium channel) thallium flux, FluoZin2; at 10 µM; stronger effect = higher value; submaximal glutamate (EC20) added with thallium.
UniProt P70579, sequence (P70579 whole entry, looked up): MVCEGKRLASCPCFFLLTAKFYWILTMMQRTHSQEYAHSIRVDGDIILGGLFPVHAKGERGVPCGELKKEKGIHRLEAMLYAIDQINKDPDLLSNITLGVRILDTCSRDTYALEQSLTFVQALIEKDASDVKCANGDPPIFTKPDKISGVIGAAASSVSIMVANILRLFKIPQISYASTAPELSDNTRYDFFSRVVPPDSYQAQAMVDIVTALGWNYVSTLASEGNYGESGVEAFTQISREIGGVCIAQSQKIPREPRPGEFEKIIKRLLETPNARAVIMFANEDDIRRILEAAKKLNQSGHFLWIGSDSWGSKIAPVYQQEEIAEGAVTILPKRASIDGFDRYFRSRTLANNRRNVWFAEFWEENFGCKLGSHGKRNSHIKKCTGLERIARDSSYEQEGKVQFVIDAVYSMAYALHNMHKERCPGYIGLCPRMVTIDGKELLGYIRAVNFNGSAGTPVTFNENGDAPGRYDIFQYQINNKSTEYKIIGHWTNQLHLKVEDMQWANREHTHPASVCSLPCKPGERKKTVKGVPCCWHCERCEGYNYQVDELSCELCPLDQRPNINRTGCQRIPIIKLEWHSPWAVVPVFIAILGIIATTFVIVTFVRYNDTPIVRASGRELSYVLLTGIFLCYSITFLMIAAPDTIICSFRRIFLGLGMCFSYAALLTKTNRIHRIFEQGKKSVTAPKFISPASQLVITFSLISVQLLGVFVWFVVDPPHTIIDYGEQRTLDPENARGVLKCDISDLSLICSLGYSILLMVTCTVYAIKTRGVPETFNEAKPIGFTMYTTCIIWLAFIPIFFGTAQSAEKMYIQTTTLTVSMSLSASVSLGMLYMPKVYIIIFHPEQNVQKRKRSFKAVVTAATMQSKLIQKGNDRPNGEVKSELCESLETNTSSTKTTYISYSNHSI
`O=C(NC(Cc1c[nH]c2ccccc12)c1nnc2n1CCCCC2)c1ccccc1Cl` (stereo not drawn) was tested, and the z-score was 0.246.
`Cc1cccc2cc(C#N)c(SCC(=O)NCc3cccs3)nc12` showed a z-score of -0.979.
`C=CCN=C(NC#N)SCc1ccccc1` showed a z-score of -0.0394.
`COc1ccc(NC(=O)CSc2nc3c(c(-c4cccs4)c2C#N)CN(C)CC3)cc1OC` gave a z-score of -0.342.
Work on `Cn1cnnc1SCC(=O)c1ccc2c(c1)OCO2` yielded a z-score of -0.0967.
`N#C/C=C(/N)N1CCN(c2ccc(Cl)c(Cl)c2)CC1` showed a z-score of 0.375.
`O=C1c2ccccc2C(=O)N1CC(=O)N1c2ccccc2CCc2ccccc21` showed a z-score of 0.145.
For `O=C1c2ccccc2NC(c2ccc(-c3cccc(Cl)c3)o2)N1O` (stereo not drawn), the z-score was 2.57.
`Cc1noc(C)c1COc1ccc(C(=O)OCC(=O)NC23CC4CC(CC(C4)C2)C3)cc1` showed a z-score of -0.1.
With `CCN(c1ccccc1)S(=O)(=O)c1ccc(NCC2COc3ccccc3O2)nc1` (stereo not drawn) the z-score was -0.478.
`O=C(Nc1cnc2sc3c(n2c1=O)CCCC3)c1ccc(F)cc1` showed a z-score of -0.413.
`Cc1cccc(C)c1NC(=O)C1NC(=O)CC1c1ccccc1` (stereo not drawn) gave a z-score of -0.192.
With `COc1ccccc1C(=O)N(NC(=O)Oc1ccccc1)C(C)(C)C` the z-score was 0.266.
`COc1ccc(NC(=O)c2csc(Cc3ccccc3)n2)cc1` gave a z-score of -0.31.
Compound `Cc1ccc(-c2nc3c(c(=O)c4ccccc4n3C)c(=O)n2-c2ccccc2)cc1` has a z-score of -1.09.
`CCN(CC)c1ncnc2scc(C3COc4ccccc4O3)c12` (stereo not drawn) showed a z-score of 0.0186.
For `COc1cc(NC(=O)CN2C(=O)c3ccccc3S2(=O)=O)c(OC)cc1Cl`, the z-score was -0.144.
Compound `CC(=O)Nc1ccc(S(=O)(=O)NNC(=O)CCC(=O)Nc2cc(C)ccc2C)cc1` has a z-score of -0.368.
With `CCOC(=O)C1=NN(C(=O)c2ccccc2)C(O)(c2ccc(C)cc2)C1` (stereo not drawn) the z-score was active: 10.5.
`COc1ccc(C(=O)Nc2ccc(S(=O)(=O)N3CCCCC3)cc2)cc1OC` was tested, and the z-score was -0.152.
`CC(/C=C/c1ccc(C)o1)=C\C(=O)O` showed a z-score of 0.682.
For `Cc1cc(NC(=O)C2CC(c3ccccc3Cl)=NO2)no1` (stereo not drawn), the z-score was -0.102.
Work on `Cc1ccc(-n2c(Cc3cccn3C)nnc2SCC(=O)NCc2ccc3c(c2)OCO3)cc1` yielded a z-score of 0.0164.
With `N#CC1=C(N)OC2=C(CN(Cc3ccccc3)C/C2=C\c2cccnc2)C1c1cccnc1` (stereo not drawn) the z-score was -0.12.
Work on `CC(Cc1cccs1)NC(=O)Nc1ccc(Cl)cc1` (stereo not drawn) yielded a z-score of 1.28.
`CNc1nnc(CSc2nc(C)cc(C)n2)s1` showed a z-score of -0.0604.
`COc1ccc(CCNC(=O)Cn2cccc2C(=O)c2ccccc2)cc1OC` gave a z-score of -0.384.
`CC(C)NC(C(=O)Nc1cc(Cl)cc(Cl)c1)c1ccccc1` (stereo not drawn) gave a z-score of 0.344.
In the case of `CC(=O)OCC(OC(C)=O)C(OC(C)=O)C(OC(C)=O)C(=O)Nc1ccc(C)cc1` (stereo not drawn), the z-score was 0.0188.
Work on `N#Cc1ccc(-c2csc(NNC(=O)c3ccc(Br)cc3)n2)cc1` yielded a z-score of -0.39.
Compound `CCOCCCNC(=O)C1CCCN1C(=O)NC1CCCCC1` (stereo not drawn) has a z-score of -0.594.
Compound `CCCCc1nc(NCc2ccccc2)c(C#N)c2c1COC(C)(C)C2` has a z-score of 0.531.
For `CCOC(=O)c1ccc(N2C(=O)C3ON(c4ccccc4)C(c4ccco4)C3C2=O)cc1` (stereo not drawn), the z-score was -0.354.
`O=C(Nc1ccccc1C(=O)N1CCOCC1)c1noc2c1CCCC2` gave a z-score of -0.797.
`C=C(C)C1CC=C(C)/C(=N\NC(=O)CCc2ccccc2)C1` (stereo not drawn) was tested, and the z-score was -0.339.
`COC(=O)c1cc(OC)c(OC)cc1NC(=S)Nc1cccc(C(C)=O)c1` was tested, and the z-score was 1.8.
`COc1ccc(/C=C2/SC(=O)N(CCNC(=O)C3CCCN3C(=O)c3cccs3)C2=O)cc1` (stereo not drawn) gave a z-score of -0.148.
For `Cc1ccc(N=Nc2c(O)n(CN3CCOCC3)c3ccccc23)cc1`, the z-score was -0.152.
Compound `Cc1ccc(C(=O)c2sc3nsc(C)c3c2N)cc1` has a z-score of -0.0515.
Compound `O=C1C2CCCN2C(c2cccc(F)c2)N1c1cccc(Cl)c1` (stereo not drawn) has a z-score of -0.718.
For `CCc1cc2c(CN3CCN(CC)CC3)cc(=O)oc2cc1O`, the z-score was -0.115.
`COc1ccc(C(=S)NC2CCCCC2)cc1` was tested, and the z-score was -0.201.
For `Cc1nc2sc3c(c2c(=O)o1)CC(C)(C)OC3`, the z-score was 0.0177.
`O=C(NCc1cccs1)c1ccccc1[N+](=O)[O-]` showed a z-score of -0.563.
`N/C(=N\OS(=O)(=O)c1cccc([N+](=O)[O-])c1)c1ccncc1` showed a z-score of -0.167.
Compound `CC(C)n1c(SCC(=O)N2c3ccccc3Sc3ccccc32)nc2c1c(=O)n(C)c(=O)n2C` has a z-score of -0.355.
In the case of `Cc1ccc(C(=O)Nc2ccccc2C(=O)N2CC3(C)CC2CC(C)(C)C3)cc1` (stereo not drawn), the z-score was -0.155.
`O=C(CC1C(=O)NCCN1C(=O)Nc1ccccc1)Nc1ccc2c(c1)OCO2` (stereo not drawn) was tested, and the z-score was 0.435.
`CC(C)NC(=O)c1ccccc1S(=O)(=O)c1ccccc1C#N` showed a z-score of -0.187.
`Cc1c[nH]c2cccc(OCC(O)CNC(C)(C)C)c12` (stereo not drawn) gave a z-score of 0.45.
Compound `O=C(Nc1ccc(F)cc1)N1CCOCC1` has a z-score of 0.651.
In the case of `COc1ccccc1OCC(=O)OCC(=O)Nc1sccc1C(N)=O`, the z-score was -0.178.
Work on `Cc1ccc([N+](=O)[O-])cc1NC(=O)CN(C(=O)c1ccc(Cl)cc1)C1CCCCC1` yielded a z-score of -0.595.
In the case of `Cc1ccc(S(=O)(=O)/N=C/c2ccc(N(C)C)cc2)cc1`, the z-score was -0.154.
For `Cc1ccc2c(c1)c(C)cc[n+]2Cc1ccccc1`, the z-score was -0.0709.
Work on `COc1cccc(/C=C/C(=O)OCC(=O)N2c3ccccc3NC(=O)C2(C)C)c1` yielded a z-score of 0.273.
Work on `Cc1ccc(CCNC(=O)CCc2nc3ccccc3[nH]2)cc1` yielded a z-score of 0.788.
`O=[N+]([O-])c1c(NCc2ccccc2)cc(N2CCc3ccccc3C2)c2nonc12` was tested, and the z-score was -0.0475.
Work on `CCCCOC(=O)Nc1ccc(S(=O)(=O)Nc2ccc([N+](=O)[O-])cc2)cc1` yielded a z-score of 0.51.
`Cc1nc(SCC(=O)Nc2ccc(F)cc2)c(C#N)c(C)c1CC(=O)c1ccc(Br)cc1` showed a z-score of -0.0107.
In the case of `O=C(CSc1nc(C2CC2)nc2ccccc12)Nc1ccc2c(c1)OCCO2`, the z-score was -0.147.
`CCC(=O)NC(c1cccc([N+](=O)[O-])c1)c1c(OC(C)=O)ccc2ccccc12` (stereo not drawn) was tested, and the z-score was -0.5.
`CNS(=O)(=O)c1cccc(C(=O)OCC(=O)C23CC4CC(CC(C4)C2)C3)c1` showed a z-score of 0.123.
In the case of `COC(=O)CNC(=O)Cc1c(F)cccc1Cl`, the z-score was 0.836.
`Cc1ccc(C(=O)Oc2ccc3c(c2)ncn3C)cc1` was tested, and the z-score was -0.539.
Compound `Cc1cc2ccccc2cc(C)c1=O` has a z-score of -0.133.
`Cc1ccc(C)c(N(C(=O)c2nsc(Cl)c2Cl)C(C(=O)NC2CCCC2)c2ccc(O)cc2)c1` (stereo not drawn) gave a z-score of -0.36.
In the case of `COc1ccccc1-c1nnc(SCc2nc3ccccc3s2)n1C`, the z-score was -0.032.
For `Cc1ccc(C)c(N2CCN(C(=O)COc3cc(=O)n(C)c4ccccc34)CC2)c1`, the z-score was -0.277.
With `O=C(COc1ccccc1-c1ccccc1)N/N=C/c1cccc2ccccc12` the z-score was -0.0947.
With `Cc1ccc(NC(=O)c2cc(-c3ccccc3)nn2-c2ccccc2)cc1` the z-score was 1.28.
`CCc1nc(SCc2ccc(C(=O)OC)o2)c2c(=O)n(C)c(=O)n(C)c2n1` was tested, and the z-score was -0.788.
In the case of `COC(C(=O)Nc1ccc(S(=O)(=O)Nc2c(C)cccc2C)cc1)c1ccccc1` (stereo not drawn), the z-score was -1.68.
Compound `Cc1ccc(C(=O)OCC(=O)Nc2cc(F)ccc2F)cc1NC(=O)c1ccco1` has a z-score of -0.571.
Compound `CC(C)n1nc(C(=O)OCC(=O)c2c[nH]c3ccccc23)c2ccccc2c1=O` has a z-score of -2.75.
`CCc1n[nH]c(=S)n1/N=C/c1cc(Br)c(OC)cc1OC` gave a z-score of -0.208.
Work on `Cc1cccc(-c2cc3nc(-c4ccccc4)cc(N4CCC5(CC4)OCCO5)n3n2)c1` yielded a z-score of 0.212.
For `N#Cc1ccc(-c2ccc(F)cc2)nc1Sc1ccc(F)cc1`, the z-score was -0.78.
Compound `COc1ccc(N2C(=O)CC3(CCCC3)CC2=O)cc1` has a z-score of -0.127.
Work on `Cc1ccc2nc(Nc3nc(C)cc(C(F)(F)F)n3)nc(C)c2c1` yielded a z-score of -0.124.
For `CCC1(C)Cc2ccccc2-c2nc(NCCCO)n(-c3ccccc3)c(=O)c21` (stereo not drawn), the z-score was -0.129.
`COc1ccccc1N1C(=N)S/C(=C\c2ccc(-c3ccccc3C(=O)O)o2)C1=O` was tested, and the z-score was -0.362.
In the case of `COc1ccc2[nH]cc(C(=O)CN3CCC(C)CC3)c2c1`, the z-score was 0.0398.
Work on `COCCN1C(=O)c2oc3cc(C)c(C)cc3c(=O)c2C1c1cccc(O)c1` (stereo not drawn) yielded a z-score of -0.184.
Work on `CNc1nc2c(C)cccn2c(=O)c1C=NCc1ccccc1` yielded a z-score of -0.335.
`O=C(CCN1CCN(c2ccccc2)CC1)Nc1ccc(Cl)cc1` gave a z-score of 1.77.
In the case of `CC(C)(C)OC(=O)NCCc1nnc(SCC(=O)c2ccc(Cl)cc2)o1`, the z-score was -0.0633.
Compound `Cc1c(NS(=O)(=O)c2cccc(C(=O)NCc3ccccc3)c2)c(=O)n(-c2ccccc2)n1C` has a z-score of 0.778.
In the case of `Cc1ccc(N2C(=O)C3C4C=CC(CNC(=S)Nc5ccc(F)cc5)(O4)C3C2=O)cc1` (stereo not drawn), the z-score was -0.0676.
In the case of `COc1cc(C(=S)N2CCCC2)ccc1OC(=O)c1ccc(Cl)cc1[N+](=O)[O-]`, the z-score was -0.375.
Work on `CC1Cc2ccccc2N1C(=O)c1ccnc(C(C)(C)C)c1` (stereo not drawn) yielded a z-score of 0.419.
For `CC(C)Nc1nnc(SCC(=O)c2c[nH]c3ccccc23)s1`, the z-score was -0.322.
In the case of `CCN(CC)c1ccc(NC(=O)CC2Oc3ccccc3NC2=O)c(C)c1` (stereo not drawn), the z-score was 0.762.
`COc1ccc(-c2c(C(C)=O)c(C)nc3sc4c(c23)NC(c2ccccc2)NC4=O)cc1` (stereo not drawn) gave a z-score of 0.104.
Compound `Cc1c(Cl)cnc(NC(=O)COC(=O)c2cccc(S(=O)(=O)N3c4ccccc4CC3C)c2)c1Cl` (stereo not drawn) has a z-score of -0.169.
In the case of `COc1ccc(NC(=O)/C(Cl)=C(/Cl)S(=O)Cc2ccccc2)cn1` (stereo not drawn), the z-score was -0.92.
`CCOc1nc(NCCC2=CCCCC2)nc(N2CCOCC2)n1` was tested, and the z-score was 0.212.
`c1ccc(CCn2c3ccccc3c3nnc(SCc4ccc5nonc5c4)nc32)cc1` gave a z-score of -0.0123.
`Cc1nn(-c2ccccc2)c(Cl)c1/C=N/NC(=O)C1COc2ccccc2O1` (stereo not drawn) was tested, and the z-score was -0.169.
With `COCCNc1nc(CSc2ccccc2)nc2sc(C)c(C)c12` the z-score was 0.592.
`COc1ccc(NC(=O)CCCN2C(=O)CCC2=O)cc1Cl` gave a z-score of 0.138.
Compound `CC(C)C12CN3CC(C(C)C)(CN(C1)C3c1ccc3c(c1)OCO3)C2=O` (stereo not drawn) has a z-score of -0.124.
With `COc1ccccc1NC(=S)NC(=O)C(C)C` the z-score was 0.0391.
`Cc1ccc(C2NC(=O)c3c(sc(C)c3C)N2)c(O)c1` (stereo not drawn) was tested, and the z-score was -0.278.
For `Cc1cc(=O)oc(C)c1C(=O)NCCNC(=O)c1c(C)cc(=O)oc1C`, the z-score was -0.13.
In the case of `CCCCC(=O)N/N=C/c1sccc1C`, the z-score was -0.294.
With `COc1cc(/C=N/Nc2nc3ccccc3[nH]2)ccc1O` the z-score was -0.253.
`Cc1c(C(=O)Nc2ccc(Cl)cc2)c2ccccn2c1C(=O)c1ccccc1` showed a z-score of 0.641.
